# Experimental data as given in paper PMC12355757, “TRIM6 ablation reverses ICB resistance in MSS gastric cancer by unleashing cGAS-STING-dependent antitumor immunity” (Journal of Experimental & Clinical Cancer Research : CR, 2025).
# By UniProt entry, the sequences of proteins in these tests, tags left out. Where a name states a change or a piece, a line headed by the entry shows the natural chain unless it says otherwise. Chains listed by the source or under a name are the forms on record and can include a tag or linker.
# UniProt Q8N884: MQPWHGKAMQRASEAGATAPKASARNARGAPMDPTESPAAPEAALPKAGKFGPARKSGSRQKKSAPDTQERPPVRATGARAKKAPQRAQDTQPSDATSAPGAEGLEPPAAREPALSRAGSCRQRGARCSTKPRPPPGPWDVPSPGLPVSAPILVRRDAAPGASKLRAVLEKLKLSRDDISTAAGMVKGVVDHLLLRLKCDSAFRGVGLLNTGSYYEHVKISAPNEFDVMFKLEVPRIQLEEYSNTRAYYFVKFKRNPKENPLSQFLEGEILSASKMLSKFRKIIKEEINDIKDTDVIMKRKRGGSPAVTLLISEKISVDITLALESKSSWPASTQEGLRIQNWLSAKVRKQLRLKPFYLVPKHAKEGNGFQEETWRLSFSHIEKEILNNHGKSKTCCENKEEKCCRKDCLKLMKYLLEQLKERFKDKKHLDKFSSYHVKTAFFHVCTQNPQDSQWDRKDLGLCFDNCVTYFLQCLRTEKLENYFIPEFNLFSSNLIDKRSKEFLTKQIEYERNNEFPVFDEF
# UniProt Q9C030: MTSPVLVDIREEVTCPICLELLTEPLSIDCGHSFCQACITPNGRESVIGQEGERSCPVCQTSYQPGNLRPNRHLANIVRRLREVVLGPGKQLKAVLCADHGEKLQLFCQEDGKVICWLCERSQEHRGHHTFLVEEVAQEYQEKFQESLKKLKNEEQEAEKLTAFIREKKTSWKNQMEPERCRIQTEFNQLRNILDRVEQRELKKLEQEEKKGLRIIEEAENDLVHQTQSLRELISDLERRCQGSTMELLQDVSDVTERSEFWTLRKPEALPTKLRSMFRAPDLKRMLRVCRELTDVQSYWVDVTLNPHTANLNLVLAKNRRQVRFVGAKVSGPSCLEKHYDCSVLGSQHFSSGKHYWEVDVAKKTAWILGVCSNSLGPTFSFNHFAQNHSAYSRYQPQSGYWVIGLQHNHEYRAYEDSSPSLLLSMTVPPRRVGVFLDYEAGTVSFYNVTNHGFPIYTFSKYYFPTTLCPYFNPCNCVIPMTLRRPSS
# HA-TRIM6 (Q9C030-2, form named): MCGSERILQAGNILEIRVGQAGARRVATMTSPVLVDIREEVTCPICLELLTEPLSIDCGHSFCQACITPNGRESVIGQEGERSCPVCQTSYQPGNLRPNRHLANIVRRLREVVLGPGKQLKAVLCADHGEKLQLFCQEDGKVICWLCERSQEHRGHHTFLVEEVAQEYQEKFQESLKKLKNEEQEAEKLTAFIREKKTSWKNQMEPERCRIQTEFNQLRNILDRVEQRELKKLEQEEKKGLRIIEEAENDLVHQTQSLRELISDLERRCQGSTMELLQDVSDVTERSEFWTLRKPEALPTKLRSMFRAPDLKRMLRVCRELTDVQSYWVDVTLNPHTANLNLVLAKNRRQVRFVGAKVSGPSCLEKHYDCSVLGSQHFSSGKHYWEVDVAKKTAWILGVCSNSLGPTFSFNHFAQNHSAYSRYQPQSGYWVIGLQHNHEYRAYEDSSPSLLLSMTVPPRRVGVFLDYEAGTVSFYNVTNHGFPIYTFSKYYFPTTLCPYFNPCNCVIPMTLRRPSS
# UniProt Q86WV6: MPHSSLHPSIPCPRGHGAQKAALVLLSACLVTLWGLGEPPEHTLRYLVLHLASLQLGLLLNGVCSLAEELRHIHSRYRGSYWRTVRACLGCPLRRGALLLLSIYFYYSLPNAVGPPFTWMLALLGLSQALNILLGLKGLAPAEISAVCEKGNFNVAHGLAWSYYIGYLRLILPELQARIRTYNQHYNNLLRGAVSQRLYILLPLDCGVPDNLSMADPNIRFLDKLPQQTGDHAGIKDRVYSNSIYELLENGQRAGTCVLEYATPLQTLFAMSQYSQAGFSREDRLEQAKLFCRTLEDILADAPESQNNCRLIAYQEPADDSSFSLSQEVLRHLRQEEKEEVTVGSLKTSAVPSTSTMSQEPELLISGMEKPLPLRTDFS
# Results are given in words; binding and its absence hold for the method and conditions named. In cells and extracts the contact can be indirect. Some entries that bind do so weakly or less than the wild type. For some assays here: Tags and fused reporters may be left off the sequences shown.
# B1: Flag-TBK1 (enzyme, UniProt Q9UHD2 1-729)
# chain: MQSTSNHLWLLSDILGQGATANVFRGRHKKTGDLFAIKVFNNISFLRPVDVQMREFEVLKKLNHKNIVKLFAIEEETTTRHKVLIMEFCPCGSLYTVLEEPSNAYGLPESEFLIVLRDVVGGMNHLRENGIVHRDIKPGNIMRVIGEDGQSVYKLTDFGAARELEDDEQFVSLYGTEEYLHPDMYERAVLRKDHQKKYGATVDLWSIGVTFYHAATGSLPFRPFEGPRRNKEVMYKIITGKPSGAISGVQKAENGPIDWSGDMPVSCSLSRGLQVLLTPVLANILEADQEKCWGFDQFFAETSDILHRMVIHVFSLQQMTAHKIYIHSYNTATIFHELVYKQTKIISSNQELIYEGRRLVLEPGRLAQHFPKTTEENPIFVVSREPLNTIGLIYEKISLPKVHPRYDLDGDASMAKAITGVVCYACRIASTLLLYQELMRKGIRWLIELIKDDYNETVHKKTEVVITLDFCIRNIEKTVKVYEKLMKINLEAAELGEISDIHTKLLRLSSSQGTIETSLQDIDSRLSPGGSLADAWAHQEGTHPKDRNVEKLQVLLNCMTEIYYQFKKDKAERRLAYNEEQIHKFDKQKLYYHATKAMTHFTDECVKKYEAFLNKSEEWIRKMLHLRKQLLSLTNQCFDIEEEVSKYQEYTNELQETLPQKMFTASSGIKHTMTPIYPSSNTLVEMTLGMKKLKEEMEGVVKELAENNHILERFGSLTMDGGLRNVDCL
# B2: Flag-IRF3 (protein, UniProt Q14653 1-427)
# chain: MGTPKPRILPWLVSQLDLGQLEGVAWVNKSRTRFRIPWKHGLRQDAQQEDFGIFQAWAEATGAYVPGRDKPDLPTWKRNFRSALNRKEGLRLAEDRSKDPHDPHKIYEFVNSGVGDFSQPDTSPDTNGGGSTSDTQEDILDELLGNMVLAPLPDPGPPSLAVAPEPCPQPLRSPSLDNPTPFPNLGPSENPLKRLLVPGEEWEFEVTAFYRGRQVFQQTISCPEGLRLVGSEVGDRTLPGWPVTLPDPGMSLTDRGVMSYVRHVLSCLGGGLALWRAGQWLWAQRLGHCHTYWAVSEELLPNSGHGPDGEVPKDKEGGVFDLGPFIVDLITFTEGSGRSPRYALWFCVGESWPQDQPWTKRLVMVKVVPTCLRALVEMARVGGASSLENTVDLHISNSHPLSLTSDQYKAYLQDLVEGMDFQGPGES
# Legend:
# [1] = target: cGAS (cyclic GMP-AMP synthase), endogenous (human (endogenous in MKN28 and SNU668)) (UniProt Q8N884); assay: co-IP; endogenous proteins in MKN28 and SNU668 cells; immunoprecipitation with an anti-cGAS antibody, rabbit IgG as control
# HA-TRIM6 (human) = HA-TRIM6 (human) (UniProt Q9C030); assay: co-IP; HEK293T cells transfected with HA-TRIM6 and Flag-cGAS, Flag-STING, Flag-TBK1 or Flag-IRF3 for 48 h; immunoprecipitation with anti-HA, immunoblot
# [2] = target: HA-cGAS (full length) (human) (UniProt Q8N884); assay: co-IP; HEK293T cells transfected with HA-cGAS and Flag-TRIM6 or its truncated mutants for 48 h; immunoprecipitation with anti-HA, immunoblot
Molecule,binding (HA-TRIM6 (human)),other results
"TRIM6, endogenous (from UniProt Q9C030 1-488) (enzyme)",,binding [1]: binds
Flag-STING (from UniProt Q86WV6 1-379),no binding,
"Flag-TRIM6 (full length), expressed in HEK293T cells (from UniProt Q9C030-2 1-516) (enzyme)",,binding [2]: binds
B1,no binding,
B2,no binding,
